According to PubChem BioAssay (NCATS):
Records with an inconclusive call do not appear. The call rests on the fitted dose curve; in most records, active means well fitted cell-killing curve with a large enough effect; inconclusive means small, poorly fitted or top-dose-only effect; inactive means no such curve, though single readings can be large or run the other way. The source holds several records for some structures; these can differ, active in one and inactive in another. For part of its entries the source gives two or more results. This is not the full list of results. The source may hold further records. The records of an entry are repeated measurements in other runs, samples, wells, individuals or studies. A tag in brackets gives the origin of a value. A, B and so on number the origins entry by entry.

Experiment: qHTS of pediatric cancer cell lines to identify multiple opportunities for drug repurposing: Primary screen for A673 cells (AID 1347092); further: nearly all actives have a fitted effect of over 45% in size
Settings: A673 Ewing sarcoma viability, CellTiter-Glo ATP luminescence, 48 h; series mostly up to 46 µM
Procedure, shortened: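 Cell viability of A673 measured by CellTiter-Glo ATP luminescence after 48 hours compound exposure. Dilution series spanned 0.78 nM to 46 µM (MIPE, 11-point) or 0.59 nM to 46 µM (NPC, 8-point); bortezomib 2.3 uM positive control.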
Potency means the concentration at half of the fitted maximal effect.

SMILES | Potency
CC(C)(Oc1ccc(C2CC2(Cl)Cl)cc1)C(=O)O (centres undefined) | active: 10.8 µM [sample A] and inactive [sample B]
CC12CC3CC(C)(C1)CC(N)(C3)C2 | active: 1.18 µM [sample A] and inactive [sample B]
COc1ccc2c(c1)c(CC(=O)O)c(C)n2C(=O)c1ccc(Cl)cc1 | inactive [sample A] and active: 14.8 µM [sample B]
Cc1cn([C@H]2C[C@H](N=[N+]=[N-])[C@@H](CO)O2)c(=O)[nH]c1=O | active: 372 nM [sample A] and inactive [sample B]
CC(COc1ccccc1)N(CCCl)Cc1ccccc1 (centres undefined) | inactive [sample A] and active: 9.35 µM [sample B]
Cn1cnc2c1c(=O)[nH]c(=O)n2C | inactive [sample A] and active: 18.7 µM [sample B]
CC(C(=O)O)c1cccc(C(=O)c2ccccc2)c1 (centres undefined) | inactive [sample A] and active: 14.8 µM [sample B]
Nc1nc2c(ncn2COC(CO)CO)c(=O)[nH]1 | active: 18.7 µM [sample A] and inactive [sample B]
OCCN(CCO)c1nc(N2CCCCC2)c2nc(N(CCO)CCO)nc(N3CCCCC3)c2n1 | active: 29.6 µM [sample A] and inactive [sample B]
CN1CCC(=C2c3ccccc3CC(=O)c3sccc32)CC1 | active: 14.8 µM [sample A] and inactive [sample B]
CCC1(c2ccccc2)C(=O)NCNC1=O | active: 9.35 µM [sample A] and inactive [sample B]
CC1COc2c(N3CCN(C)CC3)c(F)cc3c(=O)c(C(=O)O)cn1c23 (centres undefined) | inactive [sample A] and active: 18.7 µM [sample B]
NC(=O)NO | inactive [sample A] and active: 2.35 µM [sample B]
NC12CC3CC(CC(C3)C1)C2 | active: 2.96 µM [sample A] and inactive [sample B]
